# About 14,000 (4.5%) of roughly 310,000 compounds showed an effect of 50% or more. Effects have a minus sign here. The list shows a part of the results.
# Biological target: human ether-à-go-go-related gene (hERG) potassium channel (human, UniProt Q12809)
# Test: primary screen, population patch clamp on CHO cells stably expressing hERG
# 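Note: peak tail current of the secondary pulse compared with the same well before compound.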
# Chain of human ether-à-go-go-related gene (hERG) potassium channel (Q12809 whole entry, looked up): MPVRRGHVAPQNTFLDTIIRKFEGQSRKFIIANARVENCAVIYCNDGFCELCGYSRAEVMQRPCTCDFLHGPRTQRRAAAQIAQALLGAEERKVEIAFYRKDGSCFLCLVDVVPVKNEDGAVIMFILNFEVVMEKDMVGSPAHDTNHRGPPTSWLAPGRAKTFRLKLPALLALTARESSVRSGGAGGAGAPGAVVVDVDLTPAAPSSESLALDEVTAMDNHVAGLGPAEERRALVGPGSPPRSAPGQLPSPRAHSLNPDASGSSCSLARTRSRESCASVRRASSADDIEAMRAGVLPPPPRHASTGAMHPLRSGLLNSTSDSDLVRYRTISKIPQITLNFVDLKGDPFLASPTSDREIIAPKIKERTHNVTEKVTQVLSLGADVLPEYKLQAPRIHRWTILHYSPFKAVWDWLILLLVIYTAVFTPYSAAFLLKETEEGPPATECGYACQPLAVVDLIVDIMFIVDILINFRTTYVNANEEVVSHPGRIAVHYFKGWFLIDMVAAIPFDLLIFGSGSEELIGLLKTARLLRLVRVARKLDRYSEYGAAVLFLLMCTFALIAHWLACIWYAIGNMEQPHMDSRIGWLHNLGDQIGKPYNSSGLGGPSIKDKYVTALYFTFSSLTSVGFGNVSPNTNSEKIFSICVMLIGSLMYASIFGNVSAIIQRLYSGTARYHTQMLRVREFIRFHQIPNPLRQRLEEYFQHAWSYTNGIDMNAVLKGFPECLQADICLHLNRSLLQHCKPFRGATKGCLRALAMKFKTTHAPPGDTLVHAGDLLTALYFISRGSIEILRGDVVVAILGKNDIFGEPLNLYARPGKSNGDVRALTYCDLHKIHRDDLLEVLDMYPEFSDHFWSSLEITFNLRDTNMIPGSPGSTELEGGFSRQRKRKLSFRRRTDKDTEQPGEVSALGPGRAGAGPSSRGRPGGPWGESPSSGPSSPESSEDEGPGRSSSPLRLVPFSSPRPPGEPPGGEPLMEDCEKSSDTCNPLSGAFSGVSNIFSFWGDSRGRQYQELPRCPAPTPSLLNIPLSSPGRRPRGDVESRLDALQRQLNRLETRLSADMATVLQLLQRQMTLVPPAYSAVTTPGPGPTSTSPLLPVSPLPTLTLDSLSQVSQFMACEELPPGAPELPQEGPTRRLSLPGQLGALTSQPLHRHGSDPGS
row,SMILES,"hERG current change (%, negative = inhibition) at 10uM"
1,COc1cc(OC)cc(C(=O)N[C@H](C(=O)NCc2ccccc2)C(C)C)c1,7.08%
2,O=S(=O)(c1ccccc1)c1nc(-c2ccccc2)oc1N1CCOCC1,4.6%
3,CCN(CC)CCNC(=O)C(=O)NCC1OCCN1S(=O)(=O)c1ccc(Cl)cc1 (centres unmarked),2.55%
4,COc1ccc2nccc(C(N)=O)c2c1,-12.8%
5,O=c1c2ccccc2nc2c3ccccc3c(NCCO)nn12,-7.34%
6,O=C(COc1ccc([N+](=O)[O-])cc1)N/N=C/c1ccccn1,-20.9%
7,COc1ccccc1C1CC2CCC(C1OC(C)=O)N2Cc1ccccc1 (centres unmarked),-10.2%
8,COc1ccccc1C(=O)Nc1ccc(OCC(=O)N2CC(C)OC(C)C2)cc1 (centres unmarked),8.05%
9,Cc1ccc(S(=O)(=O)NCC2CCC(C(=O)NCc3cccnc3)CC2)cc1 (centres unmarked),-21.5%
10,O=C(COC(=O)c1ccccc1O)Nc1cccc(S(=O)(=O)N2CCCC2)c1,-16.5%
11,CC1(C(=O)NC(=S)N(CCC#N)Cc2cccnc2)CC1(Cl)Cl (centres unmarked),27.8%
12,CCOc1ccc(CNCCc2ccc3c(c2)OCO3)cc1,-77.2%
13,O=c1c2ccccc2ncn1Cc1ccccc1,1.28%
14,COc1ccc(CCNC(=O)C/C(C)=N/NC(=O)c2ccc(N)cc2)cc1OC,-8.42%
15,COCCOc1ccc(C(F)(F)F)cc1NC(=O)COC(=O)Cc1c[nH]c2ccccc12,-11.9%
16,COc1ccc(/C=N/n2cnn(Cc3ccccc3Cl)c2=S)cc1,0.0914%
17,CC1CC(C)CN(C(=O)CNC(=O)c2ccc3ccccc3c2)C1 (centres unmarked),-12.5%
18,CCOC(=O)N1CCN(C(=O)/C(=C/c2cccs2)NC(=O)c2ccc(OC)c(OC)c2)CC1,-71.2%
19,CC(C)(C#N)Cc1cc(CC(C)(C)C#N)cc(C(C)(C)C)c1,11.1%
20,Cc1ccc(CCNC(=O)CN(C)S(=O)(=O)c2cnc[nH]2)cc1,-10.6%
21,N#Cc1ccccc1Cn1c(=O)n(Cc2ccc(C(=O)NCc3ccco3)cc2)c(=O)c2ccccc21,-6.39%
22,O=C1OC(c2ccccc2)c2ccc3ccccc3c21 (centres unmarked),16.9%

row,SMILES,"hERG current change (%, negative = inhibition) at 10uM"
1,CCN(C(=O)CN1CCN(S(=O)(=O)c2cc(Cl)ccc2Cl)CC1)c1c(N)n(Cc2ccccc2)c(=O)[nH]c1=O,-7.08%
2,Cc1c(/C=N\NC(=O)c2cccc(F)c2)cnn1C,9.4%
3,CC(C)(C)C(=O)NC(=S)Nc1ccccn1,19.7%
4,Cc1ccc(NC(=O)CCNC(=O)c2ccc(Br)cc2)cc1S(=O)(=O)N1CCOCC1,-5.63%
5,COc1ccc(N(C(=O)C(C)C)S(=O)(=O)c2cccc([N+](=O)[O-])c2)cc1,-2.07%
6,O=C(CSc1nc2ccccc2c(=O)n1-c1ccc(F)cc1F)c1c[nH]c2ccccc12,-2.65%
7,COc1ccc(C2CC(c3ccc(Br)cc3)=NN2C(=O)CN2CCCC2)cc1 (centres unmarked),-68.1%
8,Nc1ccccc1SCC(=O)Nc1ccc(N2CCOCC2)cc1,-2.68%
9,CCCS(=O)(=O)N1CCCC(C(=O)NCCCOCC)C1 (centres unmarked),-4.05%
10,COc1ccc(CNC(=S)NCc2ccc(F)cc2)cc1OC,-0.604%
11,CN1CCN(c2ncccc2S(=O)(=O)N2CCCCC2)CC1,5.29%
12,Cc1ccc(NC(=O)N2CCCC2c2cccs2)cc1 (centres unmarked),7.41%
13,Cc1nn(CC2CC2)c(=O)n1-c1ccc(Cl)cc1,-3.1%
14,CCNS(=O)(=O)c1ccc(OC)c(C(=O)NC2CCCCC2)c1,13.6%
15,CCc1ccc(OCCNC(=O)c2ccco2)cc1,-2.49%
16,C/C(=C\c1ccc(Br)cc1)C(=O)c1c(C)cc(C)[nH]c1=O,8%
17,COC(=O)CSc1nnc(-c2ccncc2)n1N,22.7%
18,CCOC(=O)c1nnc(-c2ccccc2)nc1Sc1c(Cl)cccc1Cl,-2.75%
19,CC1=C(C(=O)Nc2ccc(C)cc2C)C(c2cccc([N+](=O)[O-])c2)n2nc(C(=O)OC(C)C)nc2N1 (centres unmarked),3.39%
20,COc1cc(SC)ccc1C(=O)Nc1c(Cl)cncc1Cl,-13.9%
21,COC(=O)Nc1ccccc1C(=O)N1CCN(c2ccc(C)cc2)CC1,-0.615%
22,O=C(O)c1cc2sccc2s1,4.87%
